The RNAGym collection of RNA variant scans (doi:10.1073/pnas.2313332121)
Variants at the floor of the assay are shown more often than the library holds them.

B1: TPR 5TU (parent)
chain: GGAUCUUCUCGAUCUAACAAAAAAGACAAAUCUGCCACAAAGCUUGAGAGCAUCUUCGGAUGCAGAGGCGGCAGCCUUCGGUGGCGCGAUAGCGCCAACGUUCUCAACUAUGACACGCAAAACGCGUGCUCCGUUGAAUGGAGUUUAUCAUG

Variants of: B1
Experiment: polymerase ribozyme fitness, log enrichment relative to wild type (log ratio); higher = more active; in vitro selection for triplet polymerase activity
Outline: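 Fitness measures genotype enrichment against wild-type enrichment on a logarithmic scale, with inverse-variance-weighted averaging of replicates. The logarithm is base 2, and genotypes were kept only with ≥10 input reads and ≥1 read per output in Illumina sequencing. The sequenced libraries came from one triplicate in vitro selection round, including frozen incubation at −7 °C, of PCR-built, transcribed mutant libraries of each subunit of a heterodimeric triplet polymerase ribozyme.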

Variant	polymerase ribozyme fitness (log ratio)
C5G A28U U31G C51U C85U	≤ -4.2
C5U U7G G11C A30U A47C C54G C57U A64C G92C C131A	≤ -4.2
C5G C43U C54U U61A A64C G84U U127A C131G A142G	≤ -4.2
C5G U45A U61A C75G A150U	≤ -4.2
C5G A17C A40C A52C C79G A142U U144A C149A	≤ -4.2
C5G U9G G80C C96U C105A A150G	≤ -4.2
C5U A16G G42U G86A A89G A137G	≤ -4.2
C5G U15G A73C G92A	≤ -4.2
C5U A121G G133U G141U	≤ -4.2
U6A A23C A28U C38U C69A C76A A142U G143U	≤ -4.2
U6G G83A	-0.0531
U6G C69U G84A A106C	-2.47
U6A U31G G59A U61A C63A G92C G141A	≤ -4.2
C5G U56G C96A C118U A137U G140C G141C	≤ -4.2
C5G A22C C32G G81U G92U C108U U135A G143U	≤ -4.2
U6A C93A	-2.58
C5G C10G G42C C54U U56A U82C C85G C116U	≤ -4.2
C5G A17G A20U C57U A66U G86C A107G C108A	≤ -4.2
U6A C69G G84U U145C	-1.67
U6C C10A A16G A20C C85U A120C U145C	≤ -4.2
C5U A23G A47U G48U A91C G126U	≤ -4.2

Variant	polymerase ribozyme fitness (log ratio)
U6G A40U G84A U102C A106G G128C	≤ -4.2
U6A U31G G59A U61A C63A G92C C103U A121C C132A A138C	≤ -4.2
C5U G80C G84C C114U U134A U139A	≤ -4.2
C5G A29U G42A C79A G94C A97U C103A U151C	≤ -4.2
C5U A40G G84A A97G	-3.39
U6A A30U U45A G84A G124C	≤ -4.2
U6G G71C G86A U109G	≤ -4.2
U6G C27U A37G C79U G80C C85U U101G A107U A119U G126U	≤ -4.2
U6G A12G U53G A115G G133A	≤ -4.2
U6C C43G C75A A91C C125A G128U	≤ -4.2
C5U G25A A37U U44A U53A C79U C85A G94A U134G G152A	≤ -4.2
U6G A23U C57U C85A G117U	≤ -4.2
U6C C95U A98U C99U	-2.4
C5G C87A	≤ -4.2
U6G C8G A47C G59U A91C C96G C132G G133A	≤ -4.2
U6G A22U U90G A97C U102G U109C	≤ -4.2
C5U A19C A39C U56C G59A C79A	≤ -4.2
U6G A29U A73G U77C C95U A107U	≤ -4.2
U6A C14A U15C U56A C69A U130A	≤ -4.2
U6G A24U A119U G136U	-3.74
U6G G48C C76A	≤ -4.2

Variant	polymerase ribozyme fitness (log ratio)
U6A C8A A12G C43U A64C G86C C87A	≤ -4.2
U6G A30U A73U G74C G86U C87A C118U C149A	≤ -4.2
U6G U55G G92A	-3.71
U6A A39C U45A A60C C87G C96A	≤ -4.2
C5U A41U G81A G84C C85A C96U G126A	≤ -4.2
U6G A40U U56A C93U A106C	-1.92
C5G C8U C18U A22U A24U A26C C99G A115C A150G	≤ -4.2
C5G A39U C79U G94C	≤ -4.2
U6A G11A U45A U53G C76U U90G C118U	≤ -4.2
U6G A20U C93A C116A U135A	-3.29
U6C A37C C93U	-3.12
C5G A40G U55A A66U U82A G83C C95G G141A	≤ -4.2
C5G C18U A30U U61C C85A	≤ -4.2
U6G A22G U139A	≤ -4.2
U6G A12G U56A A66C C87G A150C	≤ -4.2
C5U A41U G68A G94A C99G U102G A115G	≤ -4.2
U7A A17U A22C U33C A49C U77G G100A A121G U127C	≤ -4.2
U7A A28C G34C C38U A41U C76U C87U	≤ -4.2
U6G U9C A12C U45A C76G A91C C96G	≤ -4.2
U6A C38G C43U A47G A91C G126U	≤ -4.2
C5G G25C U56A C79A U90C C99U C125U G143U	≤ -4.2

Variant	polymerase ribozyme fitness (log ratio)
U6C G11A A37G A52G G86A G100A	≤ -4.2
C5U A19G A23G G58U G81A G94C C116A C129U U135C U146G	≤ -4.2
C5G A39C C87A G126A G136C	≤ -4.2
C5U C8U A23C C85U C103A C116U	≤ -4.2
U7A A19C A21G C95G A98G C125G A147U	≤ -4.2
C5G G50C C96U C103G C132A C149G	≤ -4.2
C5U A16U U53C G86U C114G C118A U130G	≤ -4.2
C5G A19G A29C A39C U145C	≤ -4.2
C5G A26C C87A G88A U102G C114G	≤ -4.2
U6A A19G U77C G83C	≤ -4.2
C5G C38A A39C A60U A73G G94U U104A A138U	≤ -4.2
U6A U31A A52C C93U A113G C114U	≤ -4.2
C5U C14A A19G A29U U61A G88C	≤ -4.2
C5G U7C A22C A24U U78G C87U U109G A142C	≤ -4.2
C5G A21C A22U A107C	≤ -4.2
C5U C87A A91C A97C A98C	≤ -4.2
C5U U7A C32U A37C C93G G133A U134A	≤ -4.2
C5G A12G A22U C38A U44G C75A C79U C93A G133U	≤ -4.2
U6G A19G A24G G58A U90G C96G U102G G136C	≤ -4.2
U6A C32G C35U U53A G94C C116A C149A	≤ -4.2
U6G C93A	-1.75
